For six molecules, binding results are on record in paper PMC13034042.

Chains of the proteins cited; added tags and fusions are not shown. Lines headed by an entry give the natural chain unless they say otherwise; changes in a name come on top.
UniProt P0CX44: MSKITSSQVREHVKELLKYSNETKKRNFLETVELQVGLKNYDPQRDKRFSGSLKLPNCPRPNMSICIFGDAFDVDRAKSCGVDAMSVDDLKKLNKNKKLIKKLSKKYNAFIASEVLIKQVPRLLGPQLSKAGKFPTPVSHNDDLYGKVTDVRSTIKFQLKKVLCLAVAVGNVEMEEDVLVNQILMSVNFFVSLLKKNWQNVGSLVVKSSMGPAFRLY

Changes are numbered by the printed parent chain. Numbers in names are those of the source. Results are given in words; binding and its absence hold for the method and conditions named. For part of these data: In cells and extracts the contact can be indirect. Some binding calls cover weakened binding; strength is not graded here. For part of these data: Tags and fused reporters may be left off the sequences shown.

Test [1] has as its target Gsp1.Q71L, Y2H bait (S. cerevisiae) (UniProt P32835). Briefly: two-hybrid; Y2H in reporter strain PJ69-4A; G4BD bait and G4AD prey from monocopy plasmids (ADH1 promoter); growth on SC-HLT (HIS3) and SC-ALT (ADE2) plates, 3 days at 30°C.
In test [2] the target is T1, Bcl1.N366-(His)6 (S. cerevisiae) (UniProt P53962).
T1 sequence: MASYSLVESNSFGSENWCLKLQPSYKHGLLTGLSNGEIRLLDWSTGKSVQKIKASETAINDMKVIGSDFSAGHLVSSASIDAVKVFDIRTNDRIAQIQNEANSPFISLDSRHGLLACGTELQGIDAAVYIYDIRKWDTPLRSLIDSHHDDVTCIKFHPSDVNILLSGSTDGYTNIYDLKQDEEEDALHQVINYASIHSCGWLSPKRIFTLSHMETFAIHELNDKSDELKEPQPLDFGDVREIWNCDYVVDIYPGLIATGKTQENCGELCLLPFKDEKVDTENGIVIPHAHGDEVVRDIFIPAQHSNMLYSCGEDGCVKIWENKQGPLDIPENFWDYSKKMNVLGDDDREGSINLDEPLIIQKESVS
Briefly: pull-down; two proteins co-expressed from pETDuet-1 in E. coli Rosetta(DE3); Ni-NTA affinity purification of the (His)6-tagged bait from the soluble extract (50 mM Tris-HCl pH 7.5, 200 mM NaCl, 1.5 mM MgCl2, 5% glycerol, 0.1% NP-40), imidazole eluate analysed by Coomassie staining and western blotting. For orientation: In western blotting, separated proteins are transferred to a membrane and probed.

In test [3] the target is T1, Bcl1.N366-(His)6 (S. cerevisiae). Briefly: pull-down; Rpl1b, Acl1-Flag and Bcl1.N366-(His)6 co-expressed in E. coli Rosetta(DE3); consecutive Ni-NTA and anti-FLAG affinity purification, FLAG peptide eluate analysed by Coomassie staining and western blotting.
Test [4] has as its target T2, Bcl1.323C R385A, Y2H fusion (S. cerevisiae) (UniProt P53962).
T2 sequence: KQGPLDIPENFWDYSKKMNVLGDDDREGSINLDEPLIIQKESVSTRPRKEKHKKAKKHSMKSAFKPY
As to the kind of experiment: two-hybrid; Y2H in reporter strain PJ69-4A; G4BD bait and G4AD prey from monocopy plasmids (ADH1 promoter); growth on SC-HLT (HIS3) and SC-ALT (ADE2) plates, 3 days at 30°C.

The target of test [5] is T3, Bcl1.323C, Y2H fusion (S. cerevisiae) (UniProt P53962).
T3 sequence: T2 sequence with A63R
The description is as above.

Test [6] addresses T4, Bcl1, full length, Y2H fusion (S. cerevisiae) (UniProt P53962).
T4 sequence: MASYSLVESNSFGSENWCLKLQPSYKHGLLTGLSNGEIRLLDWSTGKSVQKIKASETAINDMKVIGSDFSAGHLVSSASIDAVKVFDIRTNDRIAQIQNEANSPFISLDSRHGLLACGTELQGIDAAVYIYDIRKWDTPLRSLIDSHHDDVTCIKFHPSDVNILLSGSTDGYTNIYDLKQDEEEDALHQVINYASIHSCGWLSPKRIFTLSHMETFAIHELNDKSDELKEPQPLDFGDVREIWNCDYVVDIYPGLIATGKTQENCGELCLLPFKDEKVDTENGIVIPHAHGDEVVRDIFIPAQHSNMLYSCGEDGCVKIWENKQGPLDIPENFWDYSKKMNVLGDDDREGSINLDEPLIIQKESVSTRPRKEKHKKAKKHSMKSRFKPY
Described as above.

The target in test [7] is T5, G4BD-Rpl10, Y2H bait (S. cerevisiae) (UniProt P41805).
T5 sequence: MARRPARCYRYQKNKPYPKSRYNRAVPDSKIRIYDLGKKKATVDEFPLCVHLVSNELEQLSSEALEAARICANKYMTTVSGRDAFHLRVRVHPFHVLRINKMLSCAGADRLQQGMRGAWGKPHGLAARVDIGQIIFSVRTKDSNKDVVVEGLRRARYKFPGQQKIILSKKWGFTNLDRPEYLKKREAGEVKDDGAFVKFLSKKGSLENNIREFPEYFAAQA
The description is as above.

Test [8] has as its target T6, Rpl10, Y2H bait whose G4BD is not N-terminal (S. cerevisiae) (UniProt P41805).
T6 sequence: T5 sequence
The description is as above.

Test [9] has as its target T7, Rpl5, Y2H bait whose G4BD is not N-terminal (S. cerevisiae) (UniProt P26321).
T7 sequence: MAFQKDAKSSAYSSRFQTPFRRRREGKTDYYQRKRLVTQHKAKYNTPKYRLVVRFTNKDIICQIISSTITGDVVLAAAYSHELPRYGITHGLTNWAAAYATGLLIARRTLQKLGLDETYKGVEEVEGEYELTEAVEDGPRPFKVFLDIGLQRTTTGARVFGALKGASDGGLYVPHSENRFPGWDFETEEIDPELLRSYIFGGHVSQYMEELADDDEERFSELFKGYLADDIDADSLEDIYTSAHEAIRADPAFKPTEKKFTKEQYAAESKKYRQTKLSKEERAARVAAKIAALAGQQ
The description is as above.

Test [10] deals with T8, Bcl1.364C, Y2H fusion (S. cerevisiae) (UniProt P53962).
T8 sequence: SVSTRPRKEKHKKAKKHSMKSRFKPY
The test is described as above.

Test [11] concerns the target T9, Rpl38, Y2H bait (S. cerevisiae) (UniProt P49167).
T9 sequence: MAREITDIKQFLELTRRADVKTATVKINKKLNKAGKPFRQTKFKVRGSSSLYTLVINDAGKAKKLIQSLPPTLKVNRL
Described as above.

In the case of “Kap114, full length, Y2H prey (from UniProt P53067 1-1004)”, in [1], the binding entry is “binds weakly”.
Consider “Rpl1b (untagged, E. coli) (from UniProt P0CX44 1-217)”, for which the binding result in test [2] and in [3] was “binds” in each case.

B1: Kap104, full length, Y2H prey (protein, UniProt P38217 1-918)
chain: MASTWKPAEDYVLQLATLLQNCMSPNPEIRNNAMEAMENFQLQPEFLNYLCYILIEGESDDVLKQHYSLQDLQNNRATAGMLLKNSMLGGNNLIKSNSHDLGYVKSNIIHGLYNSNNNLVSNVTGIVITTLFSTYYRQHRDDPTGLQMLYQLLELTSNGNEPSIKALSKIMEDSAQFFQLEWSGNTKPMEALLDSFFRFISNPNFSPVIRSESVKCINTVIPLQTQSFIVRLDKFLEIIFQLAQNDENDLVRAQICISFSFLLEFRPDKLVSHLDGIVQFMLHLITTVNEEKVAIEACEFLHAFATSPNIPEHILQPYVKDIVPILLSKMVYNEESIVLLEASNDDDAFLEDKDEDIKPIAPRIVKKKEAGNGEDADDNEDDDDDDDDEDGDVDTQWNLRKCSAATLDVMTNILPHQVMDIAFPFLREHLGSDRWFIREATILALGAMAEGGMKYFNDGLPALIPFLVEQLNDKWAPVRKMTCWTLSRFSPWILQDHTEFLIPVLEPIINTLMDKKKDVQEAAISSVAVFIENADSELVETLFYSQLLTSFDKCLKYYKKKNLIILYDAIGRFAEKCALDETAMQIILPPLIEKWALLSDSDKELWPLLECLSCVASSLGERFMPMAPEVYNRAFRILCHCVELEAKSHQDPTIVVPEKDFIITSLDLIDGLVQGLGAHSQDLLFPQGTKDLTILKIMLECLQDPVHEVRQSCFALLGDIVYFFNSELVIGNLEDFLKLIGTEIMHNDDSDGTPAVINAIWALGLISERIDLNTYIIDMSRIILDLFTTNTQIVDSSVMENLSVTIGKMGLTHPEVFSSGAFANDSNWNKWCLSVNALDDVEEKSSAYMGFLKIINLTSTEVTMSNDTIHKIVTGLSSNVEANVFAQEIYTFLMNHSAQISAINFTPDEISFLQQFTS
For B1, the binding entry is listed as “no binding” in test [4], “binds” in test [5] and “binds weakly” in test [6].

B2: Sqt1, Y2H prey (protein, UniProt P35184 1-431)
chain: MEPQEEFITTEEVEQEIVPTVEVEQDVPVDIEGENDDDDEMMNDDEEALEVDMSNNSLTYFDKHTDSVFAIGHHPNLPLVCTGGGDNLAHLWTSHSQPPKFAGTLTGYGESVISCSFTSEGGFLVTADMSGKVLVHMGQKGGAQWKLASQMQEVEEIVWLKTHPTIARTFAFGATDGSVWCYQINEQDGSLEQLMSGFVHQQDCSMGEFINTDKGENTLELVTCSLDSTIVAWNCFTGQQLFKITQAEIKGLEAPWISLSLAPETLTKGNSGVVACGSNNGLLAVINCNNGGAILHLSTVIELKPEQDELDASIESISWSSKFSLMAIGLVCGEILLYDTSAWRVRHKFVLEDSVTKLMFDNDDLFASCINGKVYQFNARTGQEKFVCVGHNMGVLDFILLHPVANTGTEQKRKVITAGDEGVSLVFEVPN
With B2, the binding result in test [7] and in test [8] was “binds” throughout.

B3: Syo1, Y2H prey (protein, UniProt Q07395 1-620)
chain: MGRSKKRSRASSSRLNPLRKAGSNDNNKDTNVVNKKLQPLLQNLSSVVPNDRSIALSSISVLCEDAHMRQLLLKEKLVPIILNKLLNDSNSDIVVESFGLLRNLSLEEGYDVSIYLWRSDIWTSITSNFGRIVESLSALQAAEQQPQLKPAGKSKIESKRLLFDFADNLLSLVVALSNGSDDILNEILTESKINEIFQVISQLLKYGVEKLPINLFNTTLDLIYDLSSESFEFIDHVSNNELLSQFLNGLSPALHPQANELTKVLIEGIHCQFLDMKITYDQCNKMIHSVCHSINNIDPVQLVNDINNPVEIGPATSKDESSKVITKIKDYNAKRNESMIKLQSIEIAIDLITAIIEIVASKYESPESQEVAIPEELINTLTNFLPHVFMILKDTFTSRILIGWNNLIWLFVSLSLTELSGELLTTLWSYVTQLDSQDDLSIKIGRMGCIWALLKLIFPDGAFESENRALINVQMLNNSGFARGIIEEFQNNNDLELQQKCINVLSTYAMIQGQIDANKEIGQFFIQTLTQLNVRPEILIEMTNSLFQIYGDASYDYNEPIFVRGGFLSILKDQVVPNLRQQFKMVDKNKNPELKERCHDCFTTLDSFIHYKMNENSTNQ
Consider B3, for which the binding entry in test [9] is “binds”.

B4: Kap121.302C, Y2H prey (domain or fragment, UniProt P32337 302-1089)
chain: SNQNYGQTLVMVTLIMMTEVSIDDDDAAEWIESDDTDDEEEVTYDHARQALDRVALKLGGEYLAAPLFQYLQQMITSTEWRERFAAMMALSSAAEGCADVLIGEIPKILDMVIPLINDPHPRVQYGCCNVLGQISTDFSPFIQRTAHDRILPALISKLTSECTSRVQTHAAAALVNFSEFASKDILEPYLDSLLTNLLVLLQSNKLYVQEQALTTIAFIAEAAKNKFIKYYDTLMPLLLNVLKVNNKDNSVLKGKCMECATLIGFAVGKEKFHEHSQELISILVALQNSDIDEDDALRSYLEQSWSRICRILGDDFVPLLPIVIPPLLITAKATQDVGLIEEEEAANFQQYPDWDVVQVQGKHIAIHTSVLDDKVSAMELLQSYATLLRGQFAVYVKEVMEEIALPSLDFYLHDGVRAAGATLIPILLSCLLAATGTQNEELVLLWHKASSKLIGGLMSEPMPEITQVYHNSLVNGIKVMGDNCLSEDQLAAFTKGVSANLTDTYERMQDRHGDGDEYNENIDEEEDFTDEDLLDEINKSIAAVLKTTNGHYLKNLENIWPMINTFLLDNEPILVIFALVVIGDLIQYGGEQTASMKNAFIPKVTECLISPDARIRQAASYIIGVCAQYAPSTYADVCIPTLDTLVQIVDFPGSKLEENRSSTENASAAIAKILYAYNSNIPNVDTYTANWFKTLPTITDKEAASFNYQFLSQLIENNSPIVCAQSNISAVVDSVIQALNERSLTEREGQTVISSVKKLLGFLPSSDAMAIFNRYPADIMEKVHKWFA
As to B4, the binding entry is given as “no binding” in test [10], “binds” in test [11] and “binds” in [5].
